Data as given in the supplement of paper PMC11417369.
The list shows a part of the results.

tested on: PfSIP2 AP2 domain 1 (GST-tagged); test: gcPBM binding intensity (ln(normalized median fluorescence intensity)); higher = stronger DNA binding
How it was run: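 Binding intensity values are the highest Masliner-normalised natural-log median intensity among replicate spots of either probe orientation. The binding step lasted 1 h in 1× PBS with 1% milk, 0.2 mg/ml BSA, 0.5% salmon testes DNA and 0.03% Triton X-100, using GST-tagged P. falciparum DNA-binding domains expressed in E. coli on an Agilent 4 × 180k array of primer-extended double-stranded 36-bp intergenic genomic probes plus negative controls. Alexa488 anti-GST antibody and a 488 nm scan detected bound protein.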

| Sequence | gcPBM binding intensity (ln) |
| --- | --- |
| CAAATTTTTTATTAAACACACAAACATATATATATA [CACACA_site5122] | 9.21 |
| AAGTGTAAAAGTTACACACACAAACTTGTCATTTTT [CACACA_site4614] | 6.78 |
| TATAAAAAATATATATATAATATTATATATATATAT [TGCATGCA_negctrl_site260] | 8.93 |
| ATTTTTTTTTTTTTTTGTACGAATAATATGTATGAA [XGTACX_site5318] | 7.12 |
| AAAGGAGGGAATTTTTCTAGGTGTGGAGTGCTACTC [XGTACX_negctrl_site63] | 7.19 |
| TCGTCTCAATAATTATAATAAAAAAATTCCTAAGTC [CACACA_negctrl_site338] | 6.92 |
| ATTTTCCTATTTAGTAGTACTTTTTTCTTTTTTTAA [XGTACX_site5260] | 7.04 |
| TTATATTTCACAAATGTGCACAGATACATATATATA | 9.03 |
| TTTTTGTTTCATAAATGTACAAAAACAAACATATTT [XGTACX_site5281] | 7.02 |
| TTATATGTATATATAGTGCAGAACAAAAGATTATAT [GTGCAC_site9599] | 7.83 |
| AAACAATTTAGACATACACACAAAAATAATATTATA [CACACA_site384] | 6.98 |
| CACGAAAATTTGTAGAGTACATATATAATTAATATA [XGTACX_site3808] | 6.91 |
| ATATATATATATATATGTACATATTGTATTATTCAC [XGTACX_site6511] | 9.47 |
| ATTAAAAAAAAGCTCATCGAAATGTCTTATATAAAT [CACACA_negctrl_site912] | 6.73 |
| CAATTAAACAATTAAACATGCAAAATGATATAATAA [TGCATGCA_site240] | 6.79 |
| AAAAAAAAATAGAAATGTACAAATTGTAATAATTCC [XGTACX_site6182] | 6.67 |
| TATAATAATATTTATTGTACGATTAGATTAATTCAT [XGTACX_site612] | 6.83 |
| GAGCATTACACATATACACACATATATATAAACATA [CACACA_site5515] | 7.59 |
| CATATGATATTATTTTGTACTTATTACAAATATGAA [XGTACX_site7929] | 7.13 |
| ATATATATATATATTTGTACATAATATATATATGCA [XGTACX_site1795] | 9.4 |
| ATGTTCTATAAATATGAACACACGACATATTATTTA [CACACA_site1799] | 6.84 |
| TGTAGTATCAATTTTTGTACATAACACATATGTATA [XGTACX_site613] | 6.93 |

| Sequence | gcPBM binding intensity (ln) |
| --- | --- |
| TATATTTAATTACATGAACACACATTATATATTTTT [CACACA_site8969] | 6.95 |
| ATATATATATATATATGTACATATTATTCTCATTGT [XGTACX_site6259] | 9.18 |
| TTTATTTTTCCATATGCACACACACCGTATATATAA [CACACA_site8293] | 7.57 |
| AAAACAAACACATTTACACACATAAATAAATCAATT [CACACA_site4122] | 7.09 |
| ATACATACATACATACGTACATATGTATATATATAT [XGTACX_site8498] | 8.83 |
| TATTCATTCTATAAAACACACAAATATTTTTGTATC [CACACA_site666] | 6.98 |
| GTATATGAATGTTCATGTACATAATAAAATATATAA [XGTACX_site250] | 6.95 |
| AAATTAAAATATAATACACACATAAAAAAAAAATCA [CACACA_site5918] | 6.94 |
| ATAAAATATAAAAACGCACACAATTATAAGGGTGTA [CACACA_site177] | 6.99 |
| ATATATATATATAAAGTGCAAAAATGAAAGTAAGAC [GTGCAC_site9850] | 9.25 |
| CAAAAAGATAAGGTGTGTACGTATTATAATTTTAAA [XGTACX_site531] | 7.14 |
| ATTTAATTTTCCAAATGTACTTATATTTTTATGAAA [XGTACX_site6144] | 7.05 |
| TGAAATGATCTTTAGTTGCACTTAAAAATATATATA | 7.64 |
| GGTATATAAAAATATTGTACTTAAAAAAATATGTAT [XGTACX_site6253] | 7.23 |
| TATTTCACTTTTTGTCTGCACTAAAATTTTATGGTA | 7.74 |
| TAGATACATAAACACACACACACATACATATATACA [CACACA_site9139] | 7.03 |
| AAAAAAAAAAAAAACACACACATATATATAATATAT [CACACA_site3172] | 7.12 |
| TTTTGACTAATATAATATGTTAAGAATTAATAAATA [XGTACX_negctrl_site35] | 6.75 |
| AAGTATAGTCTTACATATATATATATATATATATAT [GTGCAC_negctrl_site280] | 9.42 |
| AGTATACTCAAACACACACACACAAAAAAAAAAAAA [CACACA_site4398] | 7.11 |
| TAAGAAATAAATAGTACACACATAGACACCCACCGA [CACACA_site1516] | 7.3 |
| GTAATATTAATATAATGTACAAAATGAAACATATAT [XGTACX_site6219] | 7.01 |

| Sequence | gcPBM binding intensity (ln) |
| --- | --- |
| CAGTTTAATTTACATAGTACATAATATTTTAATTTT [XGTACX_site1793] | 6.92 |
| ACAATATTATTATTTAACCATACACAATTATATGTC [XGTACX_negctrl_site378] | 6.84 |
| ATTATTTGTAATATAACACACACAAAAAAAGACTCG [CACACA_site8487] | 7.1 |
| TCTTTATCCTTTCTCTTTTTATTAATTATAATATTC [TGCATGCA_negctrl_site584] | 6.99 |
| ATTATACCGTATTTTGCATGTAGTATTTTCATTTTA [TGCATGCA_site1021] | 7.14 |
| ATTAATTATGTATTTCAACAAAGAAGTGTTATATAT [GTGCAC_negctrl_site215] | 7.18 |
| ATATATACCTAAGACACACACATATATATATATATA [CACACA_site764] | 9.24 |
| AAGGAAAATATTAACTGTACATATAAAATATATATA [XGTACX_site5310] | 7.31 |
| AAATGTACAGGACGCACACACATATATATATATATA [CACACA_site3674] | 9.43 |
| TATCATTTATATATGTGTACTTATTTATTTATTTAT [XGTACX_site7961] | 7.13 |
| AAAGAAAATTAAAAAGAACACACAAATATATATATA [CACACA_site9196] | 8.83 |
| AATGAATCCTTATATACACACATTATTATAGTATAG [CACACA_site7454] | 6.87 |
| ATTTATATATATTTATGTACGTATTAATTTTTTTTT [XGTACX_site3877] | 7.1 |
| TATCTACTTAAATAAAATAAAAATAATAAATAAAAA [TGCATGCA_negctrl_site312] | 6.79 |
| ATAAAACAAAGACACACACACATACACAAAAAAAAA [CACACA_site7752] | 7.06 |
| AATAATCATGATCATAGTACGTATGAATACAAAAAA [XGTACX_site265] | 6.93 |
| ATGTATAATATTTTCACACACAAGAAAAAAGAAAAG [CACACA_site3591] | 7.1 |
| ACATTATGTCATAAATGTACACATACATATACATAC [XGTACX_site8998] | 7.11 |
| TTTTATTTATTCCTACTTTTTTATTTATTTATTTAA [XGTACX_negctrl_site415] | 6.88 |
| CGTATGTATATATATATACACACTTCTGTGATACGA [CACACA_site1949] | 7.1 |
| AAATGAATTTAACAATGTACACATATATTATAAATA [XGTACX_site1449] | 7.13 |
| ATATATATATGTATATGTACTCATTCTTCTGTGTTT [XGTACX_site5014] | 8.49 |

| Sequence | gcPBM binding intensity (ln) |
| --- | --- |
| ATATACATTCTATATACATGCATACTTCATTTTGTG [TGCATGCA_site966] | 6.99 |
| TAAGTCAAAACTTTTTTTTCTAAATTTCCATAATTA [GTGCAC_negctrl_site29] | 6.49 |
| TACATAATAATAAGGCGTACATAAAAATTAAAAATT [XGTACX_site8769] | 7.18 |
| AAAACGATTTTTTGCACACACATAATAAGCAGAACA [CACACA_site3871] | 7.39 |
| AGAAAAAAATAATGTACACACACATAGATGTTTATA [CACACA_site4271] | 6.97 |
| TCAATAATAACAAATGAACACACATATATATGAGCA [CACACA_site8663] | 6.68 |
| AAAAAAAAAAAAAAAAGTACACAGTAGAATTAAATG [XGTACX_site1843] | 8.29 |
| TTTTTTTTTTAATTAACACACATAAATATATATATA [CACACA_site3275] | 8.29 |
| GAACAATAAATAAAAAAAATAAAAATAAAAATAAAA [TGCATGCA_negctrl_site35] | 6.96 |
| ATAAGTAAATTAGATACACACATGATATCATACATA [CACACA_site1623] | 6.89 |
| ACTAAAGTGTATCACTGTACAATTCTTCTCTTTTTT [XGTACX_site8705] | 6.97 |
| ATAAATTTTTTTTTTTTTTTTTTTCTTTTTCTTTGT [CACACA_negctrl_site1231] | 6.67 |
| ACGTAATTAATTCATCAGATATAATTAATAATAATA [XGTACX_negctrl_site550] | 6.98 |
| AATATATTTGTGTATGTGCGCAGTGTGTAATTTATT [GTGCAC_site9765] | 7.52 |
| CATCTCATATTTTGAAGTACTAAGAAAAGATATAAA [XGTACX_site6867] | 7.07 |
| TAATATGCATAAAATTGTACAAACTTACATATAATA [XGTACX_site2752] | 7.08 |
| TTTTCTTGACCTATTATTCTTCTCATAGTATAATAT [GTGCAC_negctrl_site641] | 6.98 |
| TTCATAGAATTATATATTTTAAAAAAAAAAATAATT [CACACA_negctrl_site175] | 6.65 |
| TTTTTTATAGGACATGCATGTTGTAGAGCTGTATAT [TGCATGCA_site704] | 7.41 |
| TGTCAAAATATGTATACACACAATTTTTTTTTTTTT [CACACA_site2465] | 6.83 |
| ATTCATTTACCAATGGTGCAATATATTTTTATAATG | 10.3 |
| TAATAAATAAAATAGAGTACAGGGATTTCATTAAAT [XGTACX_site8979] | 6.9 |
